Measurements as given in PubChem BioAssay AID900 (National Center for Advancing Translational Sciences (NCATS), 2007).
Hit rate of the full screen: of about 75,000 compounds, about 20 (0.03%) were called active. Inconclusive results, whose numbers are uncertain, are shown with a selection of clear calls. Calls follow the shape of the dose curve; as a rule, active = well fitted inhibition curve with a large enough effect; inconclusive = small, poorly fitted or top-dose-only effect; inactive = flat fitted curve, though single readings scatter. Potencies of inconclusive entries are left out as doubtful fits.

Target: Caspase-1 (Homo sapiens) (UniProt P29466)
Assay: qHTS Assay for Allosteric/Competitive Inhibitors of Caspase-1;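 as to activity change, negative = inhibition: plate controls were vehicle for no effect and no substrate for full effect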
Conditions: Caspase-1 enzyme, Ac-WEHD-AFC fluorogenic rate; activity change, negative = inhibition: at 57.5 µM (top of the series) unless noted
Potency is read from the fitted curve at half-maximal effect; tags tell the direction and shape of the fitted curve or compound fluorescence and quenching.

Structure (SMILES) | Potency | activity change, negative = inhibition
CN(c1ccccc1)c1nc(-n2ccnc2)nc(-n2ccnc2)n1 | inactive | –
COc1cc(NC(=O)c2ccco2)c(OC)cc1NC(=O)Nc1ccc(Cl)cc1 | inconclusive [inhibitor, partial curve] | –
CC(C)(C)OC(=O)N1CC=C2C(C#N)=C(N)C(C#N)(C#N)C(c3cccs3)C2C1 (configuration not stated) | inconclusive [inhibitor, partial curve] | –
O=c1[nH]c(=O)n(Cc2ccccc2)c2nc(-c3ccco3)cc(C(F)(F)F)c12 | inconclusive [inhibitor, partial curve] | –
CC(C)(C)c1ccccc1OCCCCCNCCO | inactive | –
Cc1cc(-c2ccccc2)c(C#N)c(N)n1 | – | inconclusive: -17.5% [inhibitor]
N#Cc1ccc(C23CC4(C2)[C@H](CN(CC2CCCCC2)[C@@H]4c2ccccc2)C3c2ccccc2)cc1 (some centres not stated) | inactive | –
CCNc1ncc2nc(CCc3ccccc3)c(=O)n(-c3ccc(OC)cc3)c2n1 | inconclusive [inhibitor, partial curve] | –
COc1cc(CNc2cc(C)ccc2C)cc(OC)c1OC | inactive | –
O=C1C=C(NCCc2cc(Br)c(O)c(Br)c2)C(=O)c2ncccc21 | inconclusive [inhibitor, single point] | –
O=C(O)C1CCCCC1C(=O)NCCc1ccc(Cl)cc1 (configuration not stated) | inconclusive [inhibitor, partial curve] | –
O=C1c2ccccc2NC(c2ccccn2)N1c1ccc(Cl)cc1 (configuration not stated) | inconclusive [inhibitor, partial curve] | –
CCC(C)Nc1ccc(NC(C)CC)cc1 (configuration not stated) | inconclusive [inhibitor, single point] | –
CCOC(=O)O[C@@H](C)OC(=O)[C@@H]1N2C(=O)[C@@H](NC(=O)[C@@H](N)c3ccccc3)[C@H]2SC1(C)C | inactive | –
CN(C(=O)c1ccncc1)c1nnc(-c2ccccn2)s1 | inactive | –
CC1N(C)c2cc(NC(=O)c3ccco3)ccc2C1(C)C (configuration not stated) | inactive | –
Cc1ccc(N2C(=O)[C@@H]3[C@H](C2=O)C2c4ccccc4C=CN2[C@@H]3C(=O)c2ccco2)c(C)c1 (some centres not stated) | active: 12.6 µM | –
COc1ccc(OC)c(C2=Nn3c(nnc3-c3cccc(OC(C)C)c3)SC2)c1 | inactive | –
COc1ccc(S(=O)(=O)Nc2cc(C)on2)cc1OC | inactive | –
Cc1nnc(C)c2c(C)n(C(C)c3ccccc3)c(C)c12 (configuration not stated) | inconclusive [inhibitor, partial curve] | –
NC(=O)c1ccccc1N/C=C/C(=O)c1ccccc1 | inconclusive [inhibitor, partial curve] | –

Structure (SMILES) | Potency | activity change, negative = inhibition
COc1ccc2c(c1)c(=O)oc1cc(OCC(=O)N3CCCC(C)C3)ccc12 (configuration not stated) | inactive | –
COC(=O)C/C=C/C(C)C(OC)c1ccccc1Br (configuration not stated) | – | inactive: -2.35% [at 11.5 µM]
CCOCCn1c(CN2CCC(C)CC2)nc2c1c(=O)n(C)c(=O)n2C | – | inconclusive: -17.2% [inhibitor]
N[C@@H](Cc1ccnnc1)C(=O)O | – | inactive: 1.83% [at 11.5 µM]
Nc1nc2c(s1)CCc1c-2cnn1-c1ccccc1 | inconclusive [inhibitor, partial curve] | –
Cn1c(O)c(N=N/C(=N/c2ccccn2)c2ccccn2)c2cc(Br)ccc21 | inactive | –
COc1cccc(NC(=O)c2ccc3c(c2)N(CC(=O)N2CCCCC2)C(=O)C(C)(C)O3)c1 | inconclusive [inhibitor, partial curve] | –
CC1CN(S(=O)(=O)c2cccc(C(=O)OCc3cc(=O)oc4cc(O)ccc34)c2)CC(C)O1 (configuration not stated) | inconclusive [inhibitor, partial curve] | –
CCN(CC)c1ccc(/C=N/NC(=O)c2ccc(O)cc2)cc1 | inconclusive [inhibitor, partial curve] | –
N#C/C(=C(/O)COC(=O)CCc1ccc(S(=O)(=O)N2CCOCC2)cc1)c1nc2ccccc2[nH]1 | inconclusive [inhibitor, partial curve] | –
COc1ccc(C2C(C(=O)NCCN3CCOCC3)c3ccccc3C(=O)N2C2CCCCC2)cc1 (configuration not stated) | inactive | –
CSc1ncnc2nc[nH]c12 | – | inconclusive: -15.1% [inhibitor]
CC(C)CCNc1nc(N2CCCC2)c2c(c1C#N)CCN(C)C2 | inconclusive [inhibitor, partial curve] | –
Cc1ccc2[nH]c(=O)c(CN(CCc3ccccc3)C(c3nnnn3Cc3ccco3)C(C)C)cc2c1 (configuration not stated) | inconclusive [inhibitor, partial curve] | –
O=C(Cc1nc2ccccc2s1)c1ccc(O)cc1O | inconclusive [inhibitor, single point] | –
O=C(O)CCSc1nc2ccccc2n1CCOc1ccccc1 | inactive | –
Cc1ccc(-c2csc(NC(=O)c3ccno3)n2)cc1 | inactive | –
CCCS(=O)(=O)c1cn2cccc(N)c2c1S(=O)(=O)CCC | inconclusive [inhibitor, partial curve] | –
CCNc1ncc2nc(-c3cn(C)c4ccccc34)c(=O)n(CCC#N)c2n1 | inconclusive [inhibitor, partial curve] | –
Nc1nc(CC(=O)O)cs1 | – | inconclusive: -15.6% [inhibitor]
FC(F)(F)c1ccccc1-c1nc(N2CCOCC2)c2ccccc2n1 | inactive | –

Structure (SMILES) | Potency | activity change, negative = inhibition
CCN(CC)S(=O)(=O)c1cc(C(=O)Nc2nncs2)c(Cl)cc1Cl | inactive | –
C=CCc1c(C)nc(SC)nc1Nc1ccc(C(C)=O)cc1 | inactive | –
COc1ccc(-c2cnc(SCC(=O)Nc3ccc4c(c3)OCO4)n2Cc2ccco2)cc1 | inactive | –
CCCNC(=O)OC[C@@H]1O[C@H](CCO/N=C\[C@@H](C)[C@H](OCc2ccccc2)C(C)C)C=C[C@@H]1Oc1ccc(OC)cc1 | – | inactive: -2.54% [at 11.5 µM]
Cc1ccc(/C=c2/sc3nnc(-c4ccccc4Cl)n3c2=O)o1 | – | inconclusive: -15.2% [inhibitor]
O=C(Nc1nc2c(s1)CCc1ccccc1-2)c1cccs1 | – | inconclusive: -18% [inhibitor]
CCN(CC)[C@@H](C)CN1c2ccccc2Sc2ccccc21 | inactive | –
O=c1[nH]c2cc3c(cc2cc1CN(CC1CCCO1)S(=O)(=O)c1ccccc1)OCCO3 (configuration not stated) | inconclusive [inhibitor, single point] | –
COc1cc(/C=C/C(=O)/C=C(O)/C=C/c2ccc(O)c(OC)c2)ccc1O | – | inconclusive: -18.1% [inhibitor]
CC(=O)c1sc(Nc2nc3ccc(F)cc3s2)nc1C | inconclusive [inhibitor, single point] | –
COc1cccc(C2=CC(c3cccc(OC)c3OC(F)F)n3nnnc3N2)c1 (configuration not stated) | inconclusive [inhibitor, single point] | –
COc1ccc(Cl)cc1C(=O)CSc1nnnn1C1CCCC1 | inconclusive [inhibitor, single point] | –
Cn1c(SCC(=O)c2cc3ccccc3o2)nnc1-c1ccccc1 | inactive | –
CCOC(=O)N1CCC(NC(=O)C2CCN(c3ccc(N4CCOCC4)nn3)CC2)CC1 | inconclusive [inhibitor, full curve] | –
Fc1ccccc1N1CCN(c2ncnc3[nH]ncc23)CC1 | inactive | –
COc1ccc(C)cc1S(=O)(=O)NC1CCCCC1 | inconclusive [inhibitor, single point] | –
O=C(O)CCc1ccc(-c2ccccc2)n1-c1cccc(O)c1 | – | inconclusive: -15.7% [inhibitor]
COc1cc2c(C=O)c3c4c(cc(OC)c(OC)c4c2cc1OC)CCN3C | inconclusive [inhibitor, full curve] | –
O=C(COc1ccc(Cl)cc1Cl)NC1CCSC1=O (configuration not stated) | inactive | –
CCOC(=O)C1CCCN(c2nc3ccccc3nc2C(C#N)C(=O)OCC)C1 (configuration not stated) | inconclusive [inhibitor, partial curve] | –
